Experimental data as given in PubChem BioAssay AID2101 (National Center for Advancing Translational Sciences (NCATS), 2009).
About 300 (0.091%) of roughly 330,000 compounds were called active. Another 4% or so got no clear call; they are omitted. Calls come from the whole dose curve; as a rule, active = well fitted inhibition curve with a large enough effect; inconclusive = small, poorly fitted or top-dose-only effect, or effect the other way, or another doubt; inactive = no such curve, though single readings can be large or run the other way. The list shows a part of the results, in another mix than the full data.

These compounds were tested against Lysosomal acid glucosylceramidase (Homo sapiens) (UniProt P04062) (assay: qHTS Assay for Inhibitors and Activators of N370S glucocerebrosidase as a Potential Chaperone Treatment of Gaucher Disease). Details: N370S GC spleen homogenate, 4MU-glucoside fluorescence; series mostly up to 59.4 µM; activity change, negative = inhibition: at the top concentration.
Potency is the fitted concentration of half-maximal effect.
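Throughout, for activity change, negative = inhibition: 0% = full enzyme activity and -100% = no enzyme basal.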

Row | SMILES | Potency | activity change, negative = inhibition
1 | Nc1nc2ncc(CNc3ccc(C(=O)N[C@@H](CCC(=O)O)C(=O)O)cc3)nc2c(=O)[nH]1 | inactive | –
2 | N#C/C(=C\c1ccc(N2CCOCC2)o1)C(=O)N1CCOCC1 | – | inactive: -15.5%
3 | CC(C)(C)[C@@H]1C=C(C(=O)N2CCN(Cc3ccc4c(c3)OCO4)CC2)O[C@H](OCc2ccc(CO)cc2)C1 | – | inactive: -8.05%
4 | CCCC[C@H](CC)CN=C(N)NC(N)=NCCCCCCN=C(N)NC(N)=NC[C@@H](CC)CCCC | – | inactive: -11.1% [at 21.6 µM]
5 | COc1cc([C@@H]2Oc3cc(C4Oc5cc(O)cc(O)c5C(=O)[C@H]4O)ccc3O[C@H]2CO)ccc1O (stereo partly drawn) | – | inactive: -17.3%
6 | Ic1ccc(N2CCN(Cc3c[nH]c4ncccc34)CC2)cc1 | inactive | –
7 | O=C(NCc1ccccc1)C1=C[C@@H](c2ccc(Br)cc2)C[C@@H](OCc2ccc(CO)cc2)O1 | – | inactive: 26.5%
8 | C[C@H](CO)NC(=O)[C@H](C)[C@H]1C[C@]1(C)[C@H](NC(=O)OCc1ccccc1)c1ccccc1 | – | inactive: -5.75%
9 | COC(=O)C1C(O)CC[C@@H]2CN3CCc4c([nH]c5ccccc45)C3C[C@@H]12 (stereo partly drawn) | inactive | –
10 | NS(=O)(=O)c1cc2c(cc1Cl)NC(C1CC3C=CC1C3)NS2(=O)=O (stereo not drawn) | inactive | –
11 | CCc1cc(C(c2ccccn2)N2CCN(C)CC2)c(NC(=O)c2ccccc2)s1 (stereo not drawn) | active: 14.1 µM | –
12 | NC1=NC[C@@H](Cc2ccc(O)cc2)N1CCCCC1CCCCC1 | – | inactive: -28.7%
13 | CCCCCCCCCC(=O)N[C@H](CN1CCOCC1)[C@H](O)c1ccccc1 | inactive | –
14 | CCOC(=O)[C@@H]1[C@H]2COc3ccccc3[C@@H]2N2C(=O)N(c3cccc(Cl)c3)C(=O)[C@]12C | – | inactive: -2.47%
15 | C[C@@H](C(=O)Nc1ccc2ccccc2c1)[C@H]1C[C@]1(C)[C@H](NC(=O)Oc1ccc(F)cc1)c1ccccc1 | – | inactive: -2.37%
16 | C#CCOCCOCCOCCNc1nc(N2CCN(C(=O)CCCCCCCCCCNC(=O)[C@H](CCCCN)n3cc(CCO)nn3)CC2)nc(N2CCN(C(=O)CCCCCCCCCCNC(=O)[C@H](CCCCN)n3cc(C[C@@H](C)CC)nn3)CC2)n1 | active: 14.1 µM | –
17 | CCC(C)[C@H](NC(=O)N1CC(=O)Nc2ccccc21)C(=O)N1CCC[C@H]1C(=O)O (stereo partly drawn) | – | inactive: 1.22%
18 | Cc1ccccc1OCC(O)Cn1c(=N)n(CCN2CCOCC2)c2ccccc21 (stereo not drawn) | – | inactive: 2.78%
19 | NC(Cc1cc(I)c(Oc2ccc(O)c(I)c2)c(I)c1)C(=O)O (stereo not drawn) | – | inactive: 3.66%

Row | SMILES | Potency | activity change, negative = inhibition
20 | Oc1ccc(-c2nc(-c3ccc(F)cc3)c(-c3ccncc3)[nH]2)cc1 | inactive | –
21 | O=C(O)c1ccc2c(c1)C(=O)N([C@H](Cc1ccc(O)cc1)C(=O)O)C2=O | – | inactive: -2.13%
22 | CN1CCN(CCC=C2c3ccccc3Sc3ccc(S(=O)(=O)N(C)C)cc32)CC1 | inactive | –
23 | COC(=O)[C@@]1(Cc2ccc(F)cc2)[C@H]2c3cc(C(=O)N(C)C)n(CCc4ccc(OC)c(Br)c4)c3C[C@H]2CN1C(=O)c1ccccc1 | – | inactive: -16.4%
24 | O=C(C1=C[C@H](c2csc3ccccc23)C[C@H](OCc2ccc(CO)cc2)O1)N1CCN(Cc2ccccc2)CC1 | – | inactive: 23.2%
25 | CCCN1CCC(=O)N(C(CSc2ccc(C)cc2)Cc2ccccc2)CC1 (stereo not drawn) | – | inactive: -17.3%
26 | COc1cc2ncnc(Nc3cccc(Cl)c3)c2cc1OC | inactive | –
27 | COc1c(O)cc2oc(-c3ccc(O)c(O)c3)cc(=O)c2c1O | – | inactive: -12.6%
28 | CCCCC[C@H](O)/C=C/[C@@H]1[C@H]2C/C(=C/CCCC(=O)O)C[C@H]2C[C@H]1O | inactive | –
29 | CO[C@@H]1C=CO[C@]2(C)Oc3c(C)c(O)c4c(O)c(c(C=NN5CCN(C)CC5)c(O)c4c3C2=O)NC(=O)C(C)=CC=C[C@H](C)[C@H](O)[C@H](C)[C@H](O)[C@H](C)[C@H](OC(C)=O)[C@H]1C | – | inactive: 6.99% [at 21.6 µM]
30 | CC[C@H](C)[C@@H]1O[C@]2(CC[C@@H]1C)C[C@H]1C[C@H](CC=C(C)[C@@H](O[C@@H]3C[C@H](OC)[C@H](O[C@@H]4C[C@H](OC)[C@H](O)[C@H](C)O4)[C@H](C)O3)[C@@H](C)C=CC=C3CO[C@@H]4[C@@H](O)C(C)=C[C@@H](C(=O)O1)[C@]34O)O2 | – | inactive: -8.47% [at 21.6 µM]
31 | COc1ccc(O[C@H]2C=C[C@@H](c3ccccc3)O[C@H]2COC(=O)CC/C(C)=N\O[C@@H](C)CN2CCCCc3nc(C)c(C)cc32)cc1 | – | inactive: -18.2% [at 12.8 µM]
32 | O=c1cc(-c2ccccc2)oc2cc(O)c(O)c(O)c12 | inactive | –
33 | O=c1[nH]c2cc(C(F)(F)F)ccc2n1-c1cc(C(F)(F)F)ccc1O | inactive | –
34 | C#Cc1ccc([C@H]2C=C(C(=O)N3CCN(Cc4ccc5c(c4)OCO5)CC3)O[C@@H](OCC)[C@@H]2CCCO)cc1 | – | inactive: 3.13%
35 | COC(=O)C1=C(C)NC(C)=C(C(=O)OCCCN2CCC(c3ccccc3)(c3ccccc3)CC2)C1c1cccc([N+](=O)[O-])c1 (stereo not drawn) | – | inactive: -28.3%
36 | C/C=C/CC(C)C(O)C1C(=O)NC(CC)C(=O)N(C)CC(=O)N(C)C(CC(C)C)C(=O)NC(C(C)C)C(=O)N(C)C(CC(C)C)C(=O)NC(C)C(=O)NC(C)C(=O)N(C)C(CC(C)C)C(=O)N(C)C(CC(C)C)C(=O)N(C)C(C(C)C)C(=O)N1C (stereo not drawn) | inactive | –
37 | COc1cc2nc(N3CCN(C(=O)[C@@H]4CCCO4)CC3)nc(N)c2cc1OC | – | inactive: 23.9% [at 21.6 µM]
38 | C/C=C\C[C@H](C)[C@H](O)[C@H]1C(=O)N[C@@H](CC)C(=O)N(C)CC(=O)N(C)[C@@H](CC(C)C)C(=O)N[C@@H](C(C)C)C(=O)N(C)[C@@H](CC(C)C)C(=O)N[C@@H](C)C(=O)N[C@@H](C)C(=O)N(C)[C@@H](CC(C)C)C(=O)N(C)[C@@H](CC(C)C)C(=O)N(C)[C@@H](C(C)C)C(=O)N1C | – | inactive: 1.02% [at 21.6 µM]
